The other results are listed elsewhere or left out.

The assay has as its target T1, MBP-FoxP1dN (Mus musculus, UniProt P58462 326-579).
T1 sequence: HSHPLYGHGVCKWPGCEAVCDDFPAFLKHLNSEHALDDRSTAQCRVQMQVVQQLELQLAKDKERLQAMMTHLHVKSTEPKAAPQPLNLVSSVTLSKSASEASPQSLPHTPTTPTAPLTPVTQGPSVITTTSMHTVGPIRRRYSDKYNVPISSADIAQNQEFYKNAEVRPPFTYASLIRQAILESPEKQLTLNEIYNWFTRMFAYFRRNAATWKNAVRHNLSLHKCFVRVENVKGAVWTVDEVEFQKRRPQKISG
In words: PD-seq (MBP pull-down with sequencing); 20 mM Tris-HCl pH 7.5, 100 mM NaCl, 1.5 mM MgCl2, 0.4 uM protein, 0.1 uM dsDNA library, 30 min, room temperature, amylose pull-down; high values mean tight binding. The following applies: protein: recombinant; tags: His6-MBP; chain copies: 2; dsDNA, one strand shown. A digest of the protocol: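 E. coli-expressed mouse FoxP3 or FoxP1 fragment, N-terminus removed and tagged with His6-MBP, was used at 0.4 µM against 0.1 µM of a Klenow-filled degenerate double-stranded DNA library. After 30 min at room temperature in Tris pH 7.5 buffer with NaCl and MgCl2, complexes were pulled down on amylose resin and washed three times. Binding is pull-down over input reads-per-million enrichment from pooled replicates of the proteinase K-released, PCR-barcoded, Illumina-sequenced DNA.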
Take “GATGATTGTTCTCCCAGCTGATGAATTTCCAAATTCGAGTAAACAAATTTTCCTAATCTTTCTGTTCAAGCGCCATCTAC”: the binding signal was 0.863 RPM ratio (pull-down/input).
With “GATGATTGTTCTCCCAGCTGATGAATTATAGCGTTCGAGTAAACAAATTTTCCTAATCTTTCTGTTCAAGCGCCATCTAC”, the binding signal is 1 RPM ratio (pull-down/input).
Regarding “GATGATTGTTCTCCCAGCTGATGAATTCGTCGAATCGAGTAAACAAATTTTCCTAATCTTTCTGTTCAAGCGCCATCTAC”, the binding signal was 0.99 RPM ratio (pull-down/input).
With “GATGATTGTTCTCCCAGCTGATGAATTTGAAAATTCGAGTAAACAAATTTTCCTAATCTTTCTGTTCAAGCGCCATCTAC”, the binding signal was 0.964 RPM ratio (pull-down/input).
Regarding “GATGATTGTTCTCCCAGCTGATGAATTAGGTATTTCGAGTAAACAAATTTTCCTAATCTTTCTGTTCAAGCGCCATCTAC”, the binding signal was 0.936 RPM ratio (pull-down/input).
With “GATGATTGTTCTCCCAGCTGATGAATTCCGTATCTCGAGTAAACAAATTTTCCTAATCTTTCTGTTCAAGCGCCATCTAC”, the binding signal was 0.916 RPM ratio (pull-down/input).
As to “GATGATTGTTCTCCCAGCTGATGAATTTGGAGGATCGAGTAAACAAATTTTCCTAATCTTTCTGTTCAAGCGCCATCTAC”, the binding signal was 0.84 RPM ratio (pull-down/input).
Consider “GATGATTGTTCTCCCAGCTGATGAATTTCTAAGCTCGAGTAAACAAATTTTCCTAATCTTTCTGTTCAAGCGCCATCTAC”, for which the binding signal was 0.86 RPM ratio (pull-down/input).
“GATGATTGTTCTCCCAGCTGATGAATTGTTTGCGTCGAGTAAACAAATTTTCCTAATCTTTCTGTTCAAGCGCCATCTAC”: the binding signal is 2.27 RPM ratio (pull-down/input).
Take “GATGATTGTTCTCCCAGCTGATGAATTCTCCCGCTCGAGTAAACAAATTTTCCTAATCTTTCTGTTCAAGCGCCATCTAC”: the binding signal is 0.901 RPM ratio (pull-down/input).
On to “GATGATTGTTCTCCCAGCTGATGAATTGATAGGCTCGAGTAAACAAATTTTCCTAATCTTTCTGTTCAAGCGCCATCTAC”, for which the binding signal was 0.858 RPM ratio (pull-down/input).
With “GATGATTGTTCTCCCAGCTGATGAATTCTCAGAGTCGAGTAAACAAATTTTCCTAATCTTTCTGTTCAAGCGCCATCTAC”, the binding signal is 0.765 RPM ratio (pull-down/input).
Turning to “GATGATTGTTCTCCCAGCTGATGAATTCAATGTTTCGAGTAAACAAATTTTCCTAATCTTTCTGTTCAAGCGCCATCTAC”, the binding signal is 1.16 RPM ratio (pull-down/input).
The result for “GATGATTGTTCTCCCAGCTGATGAATTACCCGCCTCGAGTAAACAAATTTTCCTAATCTTTCTGTTCAAGCGCCATCTAC” reads 0.938 RPM ratio (pull-down/input); that for “GATGATTGTTCTCCCAGCTGATGAATTGCCAGGTTCGAGTAAACAAATTTTCCTAATCTTTCTGTTCAAGCGCCATCTAC”, 0.861 RPM ratio (pull-down/input).
For the sequence “GATGATTGTTCTCCCAGCTGATGAATTCCTAAGATCGAGTAAACAAATTTTCCTAATCTTTCTGTTCAAGCGCCATCTAC”, the binding signal is 0.868 RPM ratio (pull-down/input).
In the case of “GATGATTGTTCTCCCAGCTGATGAATTTAGGGTTTCGAGTAAACAAATTTTCCTAATCTTTCTGTTCAAGCGCCATCTAC”, the binding signal is 1.04 RPM ratio (pull-down/input).
For the sequence “GATGATTGTTCTCCCAGCTGATGAATTGCCCTCCTCGAGTAAACAAATTTTCCTAATCTTTCTGTTCAAGCGCCATCTAC”, the binding signal was 0.899 RPM ratio (pull-down/input).
As to “GATGATTGTTCTCCCAGCTGATGAATTCGACGGTTCGAGTAAACAAATTTTCCTAATCTTTCTGTTCAAGCGCCATCTAC”, the binding signal is 0.863 RPM ratio (pull-down/input).
As for “GATGATTGTTCTCCCAGCTGATGAATTCGAGGTATCGAGTAAACAAATTTTCCTAATCTTTCTGTTCAAGCGCCATCTAC”, the binding signal is 0.884 RPM ratio (pull-down/input).
For the sequence “GATGATTGTTCTCCCAGCTGATGAATTCAGGTGATCGAGTAAACAAATTTTCCTAATCTTTCTGTTCAAGCGCCATCTAC”, the binding signal is 0.833 RPM ratio (pull-down/input).
As for “GATGATTGTTCTCCCAGCTGATGAATTCACATTCTCGAGTAAACAAATTTTCCTAATCTTTCTGTTCAAGCGCCATCTAC”, the binding signal is 0.877 RPM ratio (pull-down/input).
Take “GATGATTGTTCTCCCAGCTGATGAATTAGGGGCTTCGAGTAAACAAATTTTCCTAATCTTTCTGTTCAAGCGCCATCTAC”: the binding signal is 0.857 RPM ratio (pull-down/input).
Regarding “GATGATTGTTCTCCCAGCTGATGAATTAGTGCGCTCGAGTAAACAAATTTTCCTAATCTTTCTGTTCAAGCGCCATCTAC”, the binding signal was 0.918 RPM ratio (pull-down/input).
The result for “GATGATTGTTCTCCCAGCTGATGAATTTTGTGGGTCGAGTAAACAAATTTTCCTAATCTTTCTGTTCAAGCGCCATCTAC” reads 0.945 RPM ratio (pull-down/input).
In the case of “GATGATTGTTCTCCCAGCTGATGAATTGCACTCCTCGAGTAAACAAATTTTCCTAATCTTTCTGTTCAAGCGCCATCTAC”, the binding signal is 1.15 RPM ratio (pull-down/input).
For “GATGATTGTTCTCCCAGCTGATGAATTTTGTGACTCGAGTAAACAAATTTTCCTAATCTTTCTGTTCAAGCGCCATCTAC”, the binding signal is 1.03 RPM ratio (pull-down/input).
As for “GATGATTGTTCTCCCAGCTGATGAATTAGACGATTCGAGTAAACAAATTTTCCTAATCTTTCTGTTCAAGCGCCATCTAC”, the binding signal was 0.874 RPM ratio (pull-down/input).
As to “GATGATTGTTCTCCCAGCTGATGAATTGTCGCGCTCGAGTAAACAAATTTTCCTAATCTTTCTGTTCAAGCGCCATCTAC”, the binding signal is 0.966 RPM ratio (pull-down/input).
As to “GATGATTGTTCTCCCAGCTGATGAATTTAATGCTTCGAGTAAACAAATTTTCCTAATCTTTCTGTTCAAGCGCCATCTAC”, the binding signal was 1.05 RPM ratio (pull-down/input).
The result for “GATGATTGTTCTCCCAGCTGATGAATTAGACACGTCGAGTAAACAAATTTTCCTAATCTTTCTGTTCAAGCGCCATCTAC” reads 0.986 RPM ratio (pull-down/input); that for “GATGATTGTTCTCCCAGCTGATGAATTTTTCTACTCGAGTAAACAAATTTTCCTAATCTTTCTGTTCAAGCGCCATCTAC”, 0.938 RPM ratio (pull-down/input).

The record behind these values is paper PMC12820563, “FoxP3 forms a head-to-head dimer in vivo and stabilizes its multimerization on adjacent microsatellites”.
